Assay results published in paper PMC4336329 (PLoS ONE, 2015).
Among all 310,000 compounds or so, about 2,200 (0.71%) showed an effect of 50% or more. Effects have a minus sign here. Some of the results follow.

Target: human ether-à-go-go-related gene (hERG) potassium channel (human, UniProt Q12809)
Test: primary screen, population patch clamp on CHO cells stably expressing hERG

Chain of human ether-à-go-go-related gene (hERG) potassium channel (Q12809 whole entry, looked up): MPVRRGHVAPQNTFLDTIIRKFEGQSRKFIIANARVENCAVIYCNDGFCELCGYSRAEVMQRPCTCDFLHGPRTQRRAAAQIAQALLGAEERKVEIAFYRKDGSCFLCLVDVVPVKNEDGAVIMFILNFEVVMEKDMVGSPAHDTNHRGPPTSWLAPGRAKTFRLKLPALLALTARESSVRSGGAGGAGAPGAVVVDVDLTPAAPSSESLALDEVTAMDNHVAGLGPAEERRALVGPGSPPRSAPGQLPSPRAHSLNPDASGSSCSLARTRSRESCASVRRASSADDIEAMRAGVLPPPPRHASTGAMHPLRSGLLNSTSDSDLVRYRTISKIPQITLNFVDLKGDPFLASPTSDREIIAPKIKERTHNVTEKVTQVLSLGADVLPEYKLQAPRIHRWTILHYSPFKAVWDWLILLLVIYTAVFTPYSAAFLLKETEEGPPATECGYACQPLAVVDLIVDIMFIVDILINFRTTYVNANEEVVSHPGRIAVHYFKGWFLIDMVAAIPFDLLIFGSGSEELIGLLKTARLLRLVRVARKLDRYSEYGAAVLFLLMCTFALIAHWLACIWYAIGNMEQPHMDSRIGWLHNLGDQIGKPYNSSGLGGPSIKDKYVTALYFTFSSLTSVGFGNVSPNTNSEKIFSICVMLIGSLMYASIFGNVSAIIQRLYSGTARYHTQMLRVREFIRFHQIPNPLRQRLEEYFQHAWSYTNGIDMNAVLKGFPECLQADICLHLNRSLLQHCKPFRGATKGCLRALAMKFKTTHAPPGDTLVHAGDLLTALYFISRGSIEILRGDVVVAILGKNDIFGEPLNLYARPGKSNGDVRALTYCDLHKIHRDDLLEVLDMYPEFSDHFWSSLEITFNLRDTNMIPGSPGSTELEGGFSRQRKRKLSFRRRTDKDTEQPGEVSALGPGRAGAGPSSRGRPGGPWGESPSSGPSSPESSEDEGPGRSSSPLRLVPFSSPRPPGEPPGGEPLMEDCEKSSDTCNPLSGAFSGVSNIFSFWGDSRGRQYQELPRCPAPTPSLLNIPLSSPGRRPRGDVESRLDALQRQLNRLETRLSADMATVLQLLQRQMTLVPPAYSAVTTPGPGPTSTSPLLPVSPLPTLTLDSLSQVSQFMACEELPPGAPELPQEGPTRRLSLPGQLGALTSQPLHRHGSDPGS

| SMILES | hERG current change (%, negative = inhibition) at 1uM [%] |
| --- | --- |
| Cn1cc(C(c2ccccc2OCC(=O)O)c2cn(C)c3ccccc23)c2ccccc21 | -1.93 |
| NC(=O)C1CCN(C(=O)c2ccco2)CC1 | 12.3 |
| Cc1ccccc1-c1nc2ccc(Cl)cc2c(=O)n1O | 15.4 |
| CC(=O)c1cccc(NC(=O)c2ccc(NS(=O)(=O)c3c(C)noc3C)cc2)c1 | 11.8 |
| O=C(Nc1nnc(C2CC2)s1)C1CCCO1 (stereo not drawn) | 12.4 |
| O=S(=O)(NCc1ccco1)c1ccc(S(=O)(=O)N2CCCCC2)cc1 | -8.78 |
| COc1ccc(OC)c(NC(=O)COC(=O)Cn2nnc(-c3ccccc3)n2)c1 | 10.2 |
| CC1CCCC(C)N1C(=O)COC(=O)c1ccc2c(c1)OCO2 (stereo not drawn) | 12 |
| CCC(=O)NC(c1ccc(Cl)cc1Cl)c1ccc2cccnc2c1O (stereo not drawn) | 7.91 |
| CCOC(=O)N1CCC(n2c(SCC(=O)N3CCC(C)CC3)nc3ccccc3c2=O)CC1 | 0.505 |
| CC1CCCN(C(=O)CSc2cnc3ccccc3n2)C1 (stereo not drawn) | -9.88 |
| O=C(c1cnn(-c2ccccc2)c1)c1ccc2ccccc2c1O | 11.3 |
| Cc1cc(C)n(-c2nc3c(c(=O)[nH]c(=O)n3C)n2CC(O)c2ccccc2)n1 (stereo not drawn) | -0.0387 |
| CC(=O)Oc1ccccc1-n1c(C)nc(=O)c(-c2ccccc2)c1C | 9.04 |
| CC(NC(=O)c1ccccc1F)c1nnc(SCC(=O)NC2CCCCC2)n1C (stereo not drawn) | 15.9 |
| OCCN(CC(O)COc1ccccc1)CC(O)Cn1ccc2ccccc21 (stereo not drawn) | -3.64 |
| COc1ccc(/C=N/NC(=O)c2ccc(=O)n(C)c2)cc1OC | 8.72 |
| CCC(C)(C)NC(=O)c1cc([N+](=O)[O-])ccc1N1CCOCC1 | -11.8 |
| CS(=O)(=O)N1CCC(C(=O)N2CCN(c3ccc(F)cc3)CC2)CC1 | 7.16 |
| CCOc1ccccc1OCCCC(=O)N(CC)CC(=O)Nc1c(F)cccc1F | 6.63 |
| Cc1ccc(CN2CCN(CC(=O)NCc3ccc(Cl)cc3)C2=O)cc1 | -7.7 |
| Cc1ccc(C(=O)Cn2nc(C(=O)O)c3ccccc3c2=O)cc1C | 12.9 |
| Cc1ccc(C)c(OCCNc2ccc([N+](=O)[O-])cn2)c1 | 13.1 |

| SMILES | hERG current change (%, negative = inhibition) at 1uM [%] |
| --- | --- |
| CCc1ccc(N(CC)C(=O)c2ccc3c(Cl)c4c(nc3c2)CCC4)cc1 | 14.5 |
| OCCCn1c(CCCNc2nc(-c3cccc(Br)c3)cs2)nc2cc(Cl)c(N3CCCCC3)cc21 | 9.36 |
| CC1(C)Cc2c(C#N)c(SCC(=O)c3ccccc3)nc(N3CCOCC3)c2CS1 | 13 |
| CC(=O)C(=Cc1ccc(O)cc1)C(C)=O | 15.2 |
| CCC(=O)Nc1ccc(/C(C)=N\NC(=O)c2ccc(OC)cc2)cc1 | -0.17 |
| CC(=O)N1c2ccc(S(=O)(=O)NCc3ccco3)cc2CC1C (stereo not drawn) | 14.1 |
| O=C(CSCc1ccccc1Cl)NCCSc1ccccn1 | 19.7 |
| Cc1cccc(/C=N/n2c(-c3cc(-c4ccccc4)n[nH]3)n[nH]c2=S)c1 | 5.86 |
| CCOC(=O)c1cc(C#N)c(N2CCN(C)CC2)nc1-c1ccccc1 | -12.5 |
| Cc1cccnc1-n1c(C)nc2ccccc2c1=O | 7.55 |
| CC(C)(C)n1nnnc1CN1CCC(NC(=O)NC2CCCCC2)CC1 | -9.18 |
| CC(C)C(NC(=S)NCc1ccccc1)C(=O)O (stereo not drawn) | 12.7 |
| O=C(CCN1C(=O)/C(=C\c2ccccc2)SC1=S)NNC(=O)c1ccncc1 | 18.1 |
| CCOC(=O)c1nnsc1Nc1ccc(C)c(C)c1 | 17.9 |
| CCN(CCN(C)C)C(=O)c1ccc2c(c1NCCO)C(=O)c1ccccc1C2=O | 3.03 |
| CCOC(=O)c1c(C)[nH]c(C(=O)CC(=O)OC)c1C | 18.7 |
| COc1ccc(OC)c(N(CC(=O)Nc2ccc3c(c2)OCCO3)S(C)(=O)=O)c1 | 10.9 |
| COc1ccc(-c2cc3c(nn2)-c2ccccc2C3=O)cc1 | 7.89 |
| Cn1cc(SCC(=O)N2CCN(c3ccccc3)CC2)c2ccccc21 | 13.9 |
| CCS(=O)(=O)C1=NN2C(=N)/C(=C\c3ccc(OS(=O)(=O)c4ccccc4)cc3)C(=O)N=C2S1 | 16.5 |
| CC(C)c1nnc(NC(=O)c2cccc(-n3cnnn3)c2)s1 | 14.1 |
| O=C(O)c1cc(-c2ccc3c(c2)OCCO3)n[nH]1 | 9.49 |
| c1ccc2[nH]c(SCc3ccc(-c4nnco4)cc3)nc2c1 | 12.3 |

| SMILES | hERG current change (%, negative = inhibition) at 1uM [%] |
| --- | --- |
| NNC(=O)C(Cc1ccc(O)cc1)N1Cc2ccccc2C1=O (stereo not drawn) | 7.99 |
| COc1ccccc1CCC(=O)OCc1csc(CC(=O)Nc2ccccc2C)n1 | -3.76 |
| CN1CCN(/N=C/c2c(O)n(CCC3=CCCCC3)c(=S)[nH]c2=O)CC1 | -4.43 |
| Nc1cc([N+](=O)[O-])ccc1O | 3.14 |
| Cc1nn(-c2ccc(Cl)c(Cl)c2)c(C)c1C(=O)O | 13.8 |
| CSc1nc2n(n1)C(C)C1=C(CCCC1=O)N2 (stereo not drawn) | 21.1 |
| O=C(O)c1ccccc1NS(=O)(=O)c1cccc2cccnc12 | -11.3 |
| Cc1cccc(N2C(=O)c3cccc(Oc4ccc(Cl)cc4)c3C2=O)c1 | 11.6 |
| CN(C)S(=O)(=O)c1cccc(NC(=O)c2ccc3nccnc3c2)c1 | 2.06 |
| O=C(CN(CC1CCCO1)C(=O)CNS(=O)(=O)c1ccc(Cl)cc1)NC1CCCCC1 (stereo not drawn) | 10.4 |
| O=C(c1cnn2ccccc12)N(Cc1ccco1)C1CCCC1 | 16.6 |
| COc1ccc(Cl)cc1C(=O)C1CCCN(Cc2cnc(C)s2)C1 (stereo not drawn) | -12.3 |
| O=C(N=Nc1c(O)[nH]c(=O)[nH]c1=O)C1COc2cc3ccccc3cc2O1 (stereo not drawn) | 13.6 |
| Cc1ccc(NC(=O)CSc2nnc([C@H](C)NC(=O)OC(C)(C)C)o2)c(C)c1 | 4.89 |
| COc1ccc(CSc2n[nH]c(C)n2)cc1[N+](=O)[O-] | 19.3 |
| Cc1cc(C)nc(NC(=O)/C=C/c2ccccc2Cl)n1 | 4.95 |
| CC1=Cc2ccccc2C(C#N)N1C(=O)c1ccccc1 (stereo not drawn) | 2.9 |
| COc1ccccc1CNS(=O)(=O)c1ccc(-n2cnnn2)c(C)c1 | 11.6 |
| Nc1c(Cl)cc(-c2csc(NCCc3nc4cc(Cl)c(Cl)cc4n3CCCO)n2)cc1Cl | 18 |
| O=C(NC1CC1)C1CCN(c2ccc(S(=O)(=O)N3CCOCC3)cc2)CC1 | 0.269 |
| Cc1csc(SCC(=O)N(C)CC(=O)Nc2ccccc2Cl)n1 | 5.27 |
| CC1NC(=S)N(Cc2ccccc2)C1=O (stereo not drawn) | 7.95 |
| Cn1cc(C=C2C(=O)CC(C)(C)CC2=O)c2ccccc21 | 12.2 |

| SMILES | hERG current change (%, negative = inhibition) at 1uM [%] |
| --- | --- |
| Cc1ccccc1Cc1c(C)nc2nc(SCC(=O)NCCCN3CCCC3)nn2c1C | 11.6 |
| Cc1cc(C(=O)NC2=NCCS2)c2ccccc2n1 | 4.91 |
| CC12CCCC[C@@H]1CCC1C2CCC2(C)C1CC[C@@]2(O)CNCCO (stereo partly drawn) | 13.5 |
| CCCC/C(C)=N/NC(=O)CN(c1ccc(Br)cc1)S(=O)(=O)c1ccccc1 | 2.04 |
| COc1cccc(CNC(=O)C(NS(=O)(=O)c2ccc3c(c2)CCN3C(C)=O)C(C)C)c1 (stereo not drawn) | 16.2 |
| CN(C)S(=O)(=O)c1ccc(N2CCOCC2)nc1 | 0.573 |
| CN(C)CCN1C(=O)C(O)=C(C(=O)c2cc3ccccc3o2)C1c1ccc(N(C)C)cc1 (stereo not drawn) | 6.1 |
| O=C(N/N=C/c1ccccc1OC(F)F)C1=COCCO1 | 1.54 |
| Cc1ccc(N2C(=O)CC(NNc3nc4ccccc4s3)C2=O)cc1 (stereo not drawn) | -0.62 |
| Cc1cccc2cc(C#N)c(SCC(=O)N3CC(=O)Nc4ccccc43)nc12 | 8.82 |
| CCCN(CC(=O)Nc1ccccc1C)C(=O)c1ccc(-c2ccccc2)cc1 | 11.3 |
| CC(=O)c1cccc(NC(=O)c2c(C)nn(-c3ccccc3)c2Cl)c1 | 5.91 |
| CCOC(=O)C1(Cc2ccc(Cl)cc2)CCN(C(C)CCn2cccn2)CC1 (stereo not drawn) | -87.1 |
| CC(C)n1c(SCc2cc(=O)[nH]c3ccccc23)nc2c1c(=O)n(C)c(=O)n2C | 9.91 |
| N#Cc1ccc(-n2c(-c3ccccc3)nnc2-c2ccccc2)cc1C#N | 3.43 |
| COC(=O)CSC1=C(C#N)C(c2ccc3c(c2)OCO3)C2=C(CCCC2=O)N1 (stereo not drawn) | 3.85 |
| Cl.Nn1cnnc1N/N=C/c1ccc(Cl)c([N+](=O)[O-])c1 | 4.91 |
| CCC(C(=O)NCc1cccnc1)c1ccccc1 (stereo not drawn) | 0.29 |
| COCCN(CC(=O)NCc1ccc(F)cc1)C(=O)CCC(=O)Nc1nccs1 | 8.01 |
| Cc1ccc(C)c(OCC(=O)N2CCCN(C)CC2)c1 | 20.1 |
| COc1ccc(-c2nc(CS(=O)CC(=O)NC3CCCCC3)c(C)o2)cc1OC (stereo not drawn) | -10.7 |
